This note sets out measurements from the supplement of paper PMC11876631.

Residue numbers refer to the chain shown, from its start. In names and notes the source's numbering stands. ± gives the standard deviation of the averaged measurements. Laboratory Escherichia coli strains with one amino-acid change in an essential protein, pooled on minimal glucose agar with carbenicillin or gentamicin at twice the control MIC (plus kanamycin and chloramphenicol for the plasmids), 48 h. Fold change of barcode share against drug-free plates; higher = less susceptible. Active = above 20 in both replicates (the paper's putatively resistant). '<' = one read or none on drug, '>' = one read or none on a drug-free plate. Shares are relative, so most strains fall below 1 when a few take over. Listed are strains with at least 15 reads on both drug-free plates, and hits; most hits rest on fewer reference reads. Replicate rank correlation about 0.5. Edits are read from barcodes.

First the molecules themselves.
B1: guaB M195Q (protein)
chain: MLRIAKEALTFDDVLLVPAHSTVLPNTADLSTQLTKTIRLNIPMLSAAMDTVTEARLAIALAQEGGIGFIHKNMSIERQAEEVRRVKKHESGVVTDPQTVLPTTTLREVKELTERNGFAGYPVVTEENELVGIITGRDVRFVTDLNQPVSVYMTPKERLVTVREGEAREVVLAKMHEKRVEKALVVDDEFHLIGQITVKDFQKAERKPNACKDEQGRLRVGAAVGAGAGNEERVDALVAAGVDVLLIDSSHGHSEGVLQRIRETRAKYPDLQIIGGNVATAAGARALAEAGCSAVKVGIGPGSICTTRIVTGVGVPQITAVADAVEALEGTGIPVIADGGIRFSGDIAKAIAAGASAVMVGSMLAGTEESPGEIELYQGRSYKSYRGMGSLGAMSKGSSDRYFQSDNAADKLVPEGIEGRVAYKGRLKEIIHQQMGGLRSCMGLTGCGTIDELRTKAEFVRISGAGIQESHVHDVTITKESPNYRLGS
B2: hemB I309A (protein)
chain: MTDLIQRPRRLRKSPALRAMFEETTLSLNDLVLPIFVEEEIDDYKAVEAMPGVMRIPEKHLAREIERIANAGIRSVMTFGISHHTDETGSDAWREDGLVARMSRICKQTVPEMIVMSDTCFCEYTSHGHCGVLCEHGVDNDATLENLGKQAVVAAAAGADFIAPSAAMDGQVQAIRQALDAAGFKDTAIMSYSTKFASSFYGPFREAAGSALKGDRKSYQMNPMNRREAIRESLLDEAQGADCLMVKPAGAYLDIVRELRERTELPIGAYQVSGEYAMIKFAALAGAIDEEKVVLESLGSIKRAGADLAFSYFALDLAEKKILR
B3: hemB I309W (protein)
chain: B2 chain with A309W
B4: hemB I309D (protein)
chain: B2 chain with A309D
B5: hemB F310W (protein)
chain: B2 chain with A309I, F310W
B6: hemB F310Q (protein)
chain: B2 chain with A309I, F310Q
B7: hemB F310A (protein)
chain: B2 chain with A309I, F310A
B8: hemB I309Q (protein)
chain: B2 chain with A309Q
B9: hemA I246Q (protein)
chain: MTLLALGINHKTAPVSLRERVSFSPDKLDQALDSLLAQPMVQGGVVLSTCNRTELYLSVEEQDNLQEALIRWLCDYHNLNEEDLRKSLYWHQDNDAVSHLMRVASGLDSLVLGEPQILGQVKKAFADSQKGHMKASELERMFQKSFSVAKRVRTETDIGASAVSVAFAACTLARQIFESLSTVTVLLVGAGETIELVARHLREHKVQKMIIANRTRERAQILADEVGAEVIALSDIDERLREADIQISSTASPLPIIGKGMVERALKSRRNQPMLLVDIAVPRDVEPEVGKLANAYLYSVDDLQSIISHNLAQRKAAAVEAETIVAQETSEFMAWLRAQSASETIREYRSQAEQVRDELTAKALAALEQGGDAQAIMQDLAWKLTNRLIHAPTKSLQQAARDGDNERLNILRDSLGLE
B10: hemA I247Q (protein)
chain: B9 chain with Q246I, I247Q
B11: hemA L32Q (protein)
chain: B9 chain with L32Q, Q246I
B12: hemA L32A (protein)
chain: B9 chain with L32A, Q246I
B13: hemA L276Q (protein)
chain: B9 chain with Q246I, L276Q

The target of this data set is Escherichia coli (laboratory strain). Description: barcode share on antibiotic plates over drug-free plates; higher = less susceptible. The settings on record: antibiotic: gentamicin; 2× MIC (MIC 0.45 µg/mL). The protocol:
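A pool of E. coli strains, each edited to carry one amino-acid change in an essential protein, was grown for 48 h on minimal glucose agar with or without antibiotic; strain barcodes were sequenced; mean of two replicates.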
For the protein B1, the “fold change of barcode share” value was below 0.0171.

Take B2: the “fold change of barcode share” value amounted to 0.0405 ± 0.016.

Turning to B3, the “fold change of barcode share” value came out at 0.368 ± 0.14.

Turning to B4, the “fold change of barcode share” value was 0.068 ± 0.073.

As for B5, the “fold change of barcode share” value stood at 0.0372 ± 0.019.

For B6, the “fold change of barcode share” value stood at 0.00623 ± 0.0017.

Turning to B7, the “fold change of barcode share” value worked out at 0.0521 ± 0.072.

On to B8, for which the “fold change of barcode share” value was 0.0621 ± 0.053.

For B9, the “fold change of barcode share” value is 1300 [active].

Regarding B10, the “fold change of barcode share” value was > 80.5 [active].

For B11, the “fold change of barcode share” value is 95.8 [active].

B12: the “fold change of barcode share” value was > 1260 [active].

As for B13, the “fold change of barcode share” value was 2140 [active].
